# Source: the supplement of paper PMC11417369
# The other results are listed elsewhere or left out.
# Test system: PF3D7_0420300 AP2 domain 1 (GST-tagged)
# Assay: gcPBM binding intensity (ln(normalized median fluorescence intensity)); higher = stronger DNA binding
# How it was run: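 Alexa488 anti-GST antibody, scanned at 488 nm, detected GST-tagged P. falciparum DNA-binding domains that had been expressed in E. coli and incubated for 1 h on an Agilent 4 × 180k array. The array carried primer-extended double-stranded 36-bp intergenic genomic probes and negative controls. Binding intensity is the highest Masliner-normalised natural-log median intensity across replicate spots of either orientation of each probe.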
row,Sequence,gcPBM binding intensity (ln)
1,AGCATTTATGAAAAATGTACACACATCAAATGCTTA [XGTACX_site8749],9.25
2,ACACATGACATCCGTTGTACAATCATCATAAAAATG [XGTACX_site5397],9.28
3,CGTATAAATAAATACACACACATATAAATATGTAAA [CACACA_site6236],9.74
4,TAATATATTGTAGATGCATGCATTAACTATTACAAA [TGCATGCA_site190],9.15
5,TATCAATGGAAAATATATATTTGTATATATGTAATA [XGTACX_negctrl_site257],9.16
6,GTATTATACCATAATGCATGTTAACTTCAAAAGAAA [TGCATGCA_site839],9.08
7,GAAATTATTATATAAACACACATTTATTTTATTTTA [CACACA_site1957],9.29
8,ATAATCCTTAAACACACACACACACTAATAAATAAA [CACACA_site8052],10.2
9,TTGTTTCCTTAATATTCACACACATATATATAATAT [CACACA_site8553],9.68
10,ATAAAAATTAAAGAATGTACACATATAATATATGTA [XGTACX_site8735],9.21
11,AAAAGTTATAGACACACACACATATAAATATAGATT [CACACA_site6617],10
12,TATAAATGTATACAAGTGCATATTATTCACACATAA,9.34
13,GGATATATTTTATGTACACACATATATAACGGATAT [CACACA_site4847],9.57
14,TTTTAAAAAAATAAATAAATAGAAAAAAAAAATAAA [TGCATGCA_negctrl_site579],9.18
15,TATTATGACTTAAGTTGTACTGTTGAAAGAAGAAAA [XGTACX_site2985],9.05
16,TTGTGTAAATGTTAAGTGCATTTGGTAAAATATAAA [GTGCAC_site9699],9.16
17,ATGATATGCAATTTAGTGCATAACAAAATTGGTATA,9.16
18,AAAAAAAAAAAAAAAACACACATACCCATATATTTT [CACACA_site6013],9.47
19,TTTTTCTTTTTTTGGGGTACAGGGAAATCTATATTT [XGTACX_site7025],9.22
20,TCTTAATTTTTGAAGGTACACACTAATATATTAAAT [CACACA_site1191],9.18
21,TGTGTATACTTGTGTATACCAAATTAAAGACGCTTT [CACACA_negctrl_site1359],9.02
22,AAAAAATAAAAAAGGTGGTCATGTCACAAATACTTT [XGTACX_site7454],9.6
23,TAAAAGTGATATGTTCGTACGTATTTATATGTAATA [XGTACX_site211],9.14

row,Sequence,gcPBM binding intensity (ln)
1,TCTCCATCTTATGAGACATGCACTTTTTATTTAATA [TGCATGCA_site121],9.21
2,AACTCATCTTATAATTGTACATATTTATAAAAAGTA [XGTACX_site6522],9.02
3,TGTAGAAATGGGTGCACACACATATATAATATATAT [CACACA_site2507],9.68
4,AAAAAAAAAAAAAAAAAAAAAAAAAAAAAATATATA [GTGCAC_negctrl_site6],9.42
5,TTAGGGATGCTGAAATGTACACATTTAAATTATATA [XGTACX_site3000],9.09
6,AATGTAAAACTAATATGTACATATCTCTAAAGAAAT [XGTACX_site8429],9.32
7,CGTACTAACATAAAGACACACACCACATATAATAAA [CACACA_site3603],9.72
8,ATTGTCTTCCTTCTGGTGCGATGTATAGGTAAAGAT,9.17
9,CCATAAAAAGGTACATGTACAAAAAGCAAAAATATG [XGTACX_site5543],9.52
10,ATATTTTTCCAACATCGTACATTATGAGTCAAAATT [XGTACX_site993],9.24
11,TTTCTTATCAACCTTTTTTTTTTTTTTTTATTCTTA [TGCATGCA_negctrl_site162],9.28
12,AATTTAATTTTTTCGTGTACTTATATAGGAGGTTTT [XGTACX_site8310],9.19
13,CAATTAAAGATATGAACACACATGTGAACTTTCTAT [CACACA_site7796],9.48
14,CCCATATTATAGGTGTGTACATAAAAGTATATATAA [XGTACX_site3629],9.36
15,AGAAGAAATATGTAAAAAATTTTATATTCACACACA [GTGCAC_negctrl_site441],9.54
16,TGTTCTTATACTAATAGTACTTTTAGGTACTATAAA [XGTACX_site2954],9.09
17,TGTAGACATTAATGTAGTACAATATATATATATATT [XGTACX_site8608],9.34
18,TTTATATATAATGTTGCATGTCAAATTTGTATATGG [TGCATGCA_site246],9.2
19,AAAATTGGTGAAAATGAAAATATGATTATATGTATA [XGTACX_negctrl_site505],9.27
20,CCATAAAACTATAATACACACATATAGATTAACATA [CACACA_site7849],9.7
21,TGATAAGAAAAAGACTTTTCCTTCTTACTTTCTATG [CACACA_negctrl_site782],9.08
22,CAAAATAAATAATTTGGTACACATAAAAAAAAAAAA [XGTACX_site8380],9.15
23,AATAATGTTTTTATATCACACACAAATATTAAATGA [CACACA_site8074],9.43

row,Sequence,gcPBM binding intensity (ln)
1,ATTACGATAGAGAAATGTACATATATATATGTAAGT [XGTACX_site1200],9.51
2,TATTTTATAAATTAATGTACATAAATTATATCTACT [XGTACX_site3625],9.05
3,GATCAAAATTATAGAAGTACTTTATATAAATAAAAT [XGTACX_site8161],9.17
4,TATATATATAAGATTGTGCACATTAAAATGATAGAA [GTGCAC_site9621],9.4
5,TCATAAATACATTTTGCATGTAAAATATAGAATACA [TGCATGCA_site755],9.14
6,TCTATAAAATATAAAAGTACGTATCAATAATTAAAA [XGTACX_site8469],9.21
7,ATATATTAAAAGGATTAGGAAAAAATATGATTTATC [TGCATGCA_negctrl_site405],9.27
8,ATAGAATCTGGTAGCTGTACGAGTCGTAGAGTGTAG [XGTACX_site2016],9.33
9,AAGTAAAAAAAAAAAAGTACATGTTTATATAAATAT [XGTACX_site4741],9.35
10,ATAAATTAACATTAAAGTACATTTTAATAAATATTA [XGTACX_site3647],8.85
11,ATACATATATATAATACACACATAAATGTAACATTT [CACACA_site3518],9.55
12,ATCCCCATAAAAAATACACACAAATATTTATACATA [CACACA_site1001],9.67
13,AATAATAAAGTGAACACACACATATAATATATATAT [CACACA_site4143],9.81
14,ATAATTAAAATGCTCACACACATAAAAAAAAATTAA [CACACA_site2149],9.62
15,ATAATTTTATCATATATATATATATATAAATACTTA [CACACA_negctrl_site743],9.09
16,ATGCTTTTATGCACACGTACAAAAATATTATATAAT [XGTACX_site5589],9.2
17,AAAAATTGAATTTTTTTTTTTTTTTTGAGAAGGAAA [CACACA_negctrl_site1196],8.62
18,AATATTTTTGTCGTTAGTACATAAAAAATAATAATA [XGTACX_site3074],9.02
19,AAAAAAAAAACATACACACATACATACATATATATT [CACACA_site949],9.91
20,ATGAAGAATTTATATTGTACCCATTTTTATGTAAAT [XGTACX_site2528],9.24
21,CGAAAAAGTGATATAGTGCAAAATTTTCATTTCTCT,9.21
22,TTGTTATTATATTACGCATGCATCATTTATTTGCAC [TGCATGCA_site525],9.49
23,AAAGGGAATTATGGCTGTACGCATTTTATAAATAGC [XGTACX_site5878],9.14

row,Sequence,gcPBM binding intensity (ln)
1,TTTTTTTTTCTTCTTTTCAAATTTAAGAAATTATAA [CACACA_negctrl_site18],8.78
2,TGCTGTATATTTTTCTGTACACATTTATATATTCCA [XGTACX_site6244],9.67
3,AAGAATAAGAAGAAGGATCCCCTTCAAAAAAAAAAA [TGCATGCA_negctrl_site525],8.96
4,TATATAGATATGATAGTGCATTTTTAGAAAACATAA [GTGCAC_site9962],9.09
5,TTATGTAGCTAGCTATAAACTTTTTTTTATTTAAAA [CACACA_negctrl_site1297],8.81
6,AACAGATAAAAGGGTACACACATATATACAAGTACA [CACACA_site7959],9.9
7,ATATATATATATATATGTACATACTATACAATAATT [XGTACX_site3546],9.36
8,ATTATTATTAAATACACACACATACCTCCATGTTAG [CACACA_site3430],9.83
9,GATATAATTATGTGTACACAATTTTTTTTTTTTTTT [CACACA_site4501],9.23
10,AAATAAAGGAAATAAAAAGAAACCAATTTCGAATAT [CACACA_negctrl_site953],9.57
11,TTTATATGTATTAATTGTACACATATAATGTGTTTT [XGTACX_site3064],9.28
12,TTTTTTTTAAAACTATGTACGTAAAAATTGTAGTTT [XGTACX_site2302],8.92
13,ATATGTATGTATAATCGTACAAAATTTGGCGATCTT [XGTACX_site8698],9.19
14,AGAACTTTTAATGGATGTACAGTTATTTTATTATTT [XGTACX_site6226],9.41
15,ATATAGTAAATTGGTAGTACATAAAATGATTTTATG [XGTACX_site4143],9.26
16,AAAAAAGAACGCATAGTGCATATCTAAAAGATTTTT,9.05
17,GATAAATTAAGACACACACACATATATTTATTTATA [CACACA_site7789],10
18,TAGTATTAGATATATACACACATATATACCTATAGA [CACACA_site7083],9.49
19,TTACGATCATCAATATGTACATATATATATATATAT [XGTACX_site4301],9.24
20,ATTTTTTTTTTTATAGTGGATCCACATTTGCCATTT [CACACA_negctrl_site1106],9.24
